Data published in article PMC4336329 (PLoS ONE, 2015).
About 14,000 (4.5%) of roughly 310,000 compounds showed an effect of 50% or more. Effects have a minus sign here. This is one part of the list.

biological target: human ether-à-go-go-related gene (hERG) potassium channel (human, UniProt Q12809); experiment: primary screen, population patch clamp on CHO cells stably expressing hERG
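Note: peak tail current of the secondary pulse compared with the same well before compound.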

human ether-à-go-go-related gene (hERG) potassium channel, sequence (Q12809 whole entry, looked up): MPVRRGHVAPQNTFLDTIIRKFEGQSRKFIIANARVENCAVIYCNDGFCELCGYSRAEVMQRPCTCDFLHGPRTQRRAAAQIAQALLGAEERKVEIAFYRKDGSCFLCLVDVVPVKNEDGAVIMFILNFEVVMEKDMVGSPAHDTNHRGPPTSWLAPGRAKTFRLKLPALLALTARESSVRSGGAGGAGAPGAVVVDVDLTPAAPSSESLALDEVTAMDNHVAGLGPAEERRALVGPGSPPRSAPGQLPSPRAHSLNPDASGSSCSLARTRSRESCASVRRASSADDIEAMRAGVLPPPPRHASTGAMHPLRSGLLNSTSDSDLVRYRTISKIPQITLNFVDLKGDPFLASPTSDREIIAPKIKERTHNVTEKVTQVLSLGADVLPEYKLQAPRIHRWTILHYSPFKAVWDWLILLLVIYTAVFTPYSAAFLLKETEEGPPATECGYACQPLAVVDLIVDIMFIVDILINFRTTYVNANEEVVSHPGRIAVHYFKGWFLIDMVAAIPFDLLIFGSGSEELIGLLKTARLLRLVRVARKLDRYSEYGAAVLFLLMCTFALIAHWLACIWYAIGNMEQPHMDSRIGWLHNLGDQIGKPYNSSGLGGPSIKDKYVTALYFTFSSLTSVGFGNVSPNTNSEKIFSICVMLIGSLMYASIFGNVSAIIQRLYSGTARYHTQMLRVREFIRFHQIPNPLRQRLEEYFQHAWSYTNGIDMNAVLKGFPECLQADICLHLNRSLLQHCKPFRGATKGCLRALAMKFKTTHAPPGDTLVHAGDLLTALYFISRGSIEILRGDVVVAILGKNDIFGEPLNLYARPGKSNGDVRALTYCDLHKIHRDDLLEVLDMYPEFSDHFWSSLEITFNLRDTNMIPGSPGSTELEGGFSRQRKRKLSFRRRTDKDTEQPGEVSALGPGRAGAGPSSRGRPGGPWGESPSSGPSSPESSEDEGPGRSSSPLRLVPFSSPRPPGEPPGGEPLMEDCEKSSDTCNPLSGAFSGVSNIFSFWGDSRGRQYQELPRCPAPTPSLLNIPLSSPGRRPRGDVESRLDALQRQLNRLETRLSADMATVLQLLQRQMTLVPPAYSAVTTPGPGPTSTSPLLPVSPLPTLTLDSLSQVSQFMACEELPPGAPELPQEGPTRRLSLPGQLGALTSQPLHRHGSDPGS

| SMILES | hERG current change (%, negative = inhibition) at 10uM [%] |
| --- | --- |
| CCOC(=O)c1cnn(-c2ccccc2)c1-n1cccc1 | -8.27 |
| Cc1ccc(OCC(=O)Nc2ccc(N3CCN(C(=O)c4ccco4)CC3)cc2)c(C)c1 | -32.1 |
| Cc1c(C)c2c(OCC(=O)N3CCC(C(N)=O)CC3)cc3c(c2oc1=O)CCC(C)(C)O3 | -8.3 |
| CCC(C)N(C(=O)c1csnn1)C(C(=O)NC(C)(C)C)c1ccccc1 (stereo not drawn) | 2.13 |
| CC1(C)CN(C(Cc2ccccc2)C(N)=O)C1=O (stereo not drawn) | 14.6 |
| O=C(NCc1ccco1)c1ccc(Cn2c(=S)[nH]c3ccccc3c2=O)cc1 | 40.1 |
| O=C(NNC(=O)C(Cl)Cl)c1cnn(-c2ccccc2)c1C(F)(F)F | 14.2 |
| Brc1c(CSc2nc3ccccc3s2)nc2ncccn12 | -69.7 |
| O=C(CSC1=NNC(c2ccccn2)S1)Nc1ccccc1 (stereo not drawn) | 18.2 |
| Cc1nc2ccccc2c(=O)n1/N=C/c1cn[nH]c1-c1ccccc1 | -10.7 |
| CC1(C)CC(=O)C=C(N2CCCC2)C1 | 17.5 |
| O=C(COC(=O)CC1CC2CCC1C2)Nc1c(F)cccc1F (stereo not drawn) | 14.3 |
| O=C(NC1CC2CCCC(C1)N2Cc1cccs1)N1CCOCC1 (stereo not drawn) | -6.2 |
| Cn1c(N)c(S(=O)(=O)N2CCN(c3cccc(Cl)c3)CC2)c(=O)n(C)c1=O | -0.261 |
| COc1ccc2c(c1OC)C(C1c3c(cc4c(c3OC)OCO4)CCN1C)OC2=O (stereo not drawn) | -7.14 |
| COc1ccccc1NC(CC(=O)c1ccccc1)C(=O)OCC(=O)c1ccc(C)c(C)c1 (stereo not drawn) | -10.9 |
| O=C(Nc1ccc(N2CCN(C(=O)c3ccccc3)CC2)cc1)c1cc2ccccc2o1 | -17.3 |
| CCCc1ccc(C#N)c(SC2CC(=O)N(c3ccc(OC)cc3)C2=O)n1 (stereo not drawn) | 21.8 |
| FC(F)(F)c1ccc(-n2cnc3ccccc32)nc1 | -10.6 |
| CCOC(=O)c1nc(Nc2ccc(OC)cc2)c2ccccc2n1 | 2.45 |
| COc1cccc(/C=C2/Sc3ccc(C(=O)NCCN4CCCCCC4)cc3NC2=O)c1 | -47.3 |
| CC(=O)Nc1ccc(S(=O)(=O)Nc2nc3ccccc3nc2-n2ccc(=NC(=O)c3ccccc3)cc2)cc1 | 15.1 |
| O=C(CSc1nnc(CNC(=O)c2ccco2)o1)Nc1ccccc1F | 17 |

| SMILES | hERG current change (%, negative = inhibition) at 10uM [%] |
| --- | --- |
| Cc1cc(C(=O)N/N=C/c2ccco2)n[nH]1 | 31.6 |
| COc1cc(S(=O)(=O)N2CCCCC2)ccc1NC(=O)c1ccncc1 | -30.8 |
| CN(C)S(=O)(=O)c1ccc(C(=O)Nc2nc(-c3cc4ccccc4o3)cs2)cc1 | -3.13 |
| COc1cc(OC)cc(-c2nnc(SCC(=O)N3c4ccccc4Sc4ccccc43)o2)c1 | 15.3 |
| COc1ccccc1N1CCN(S(=O)(=O)c2ccc(-n3cnnn3)c(C)c2)CC1 | -13.7 |
| CC(C)Cn1c(SCC(=O)N2CCCc3ccccc32)nc2ccccc2c1=O | 4.73 |
| COC(=O)c1c(C)noc1-c1cc(C)on1 | 6.11 |
| CCOc1ccc(CCNC(=O)COC(=O)/C=C/c2ccc(C)o2)cc1OCC | 1.3 |
| CCC1Oc2ccc(C)cc2N(CC(=O)NCCCN2CCOCC2)C1=O (stereo not drawn) | 6.01 |
| O=C1CC(SCCc2nc3ccccc3[nH]2)C(=O)N1c1ccc(F)cc1 (stereo not drawn) | -12.5 |
| CN(C(=O)COC(=O)CNC(=O)C12CC3CC(CC(C3)C1)C2)C1CCS(=O)(=O)C1 (stereo not drawn) | 10.9 |
| O=C(COC(=O)/C=C/c1ccc(S(=O)(=O)N2CCOCC2)cc1)NCc1ccc(F)cc1 | -18.3 |
| CCOc1cc(NC(=O)C2CC2)c(OCC)cc1NC(=O)c1ccccc1OCC | -20 |
| Cc1cc(=O)[nH]c(SCc2cn3ccccc3n2)n1 | 16.4 |
| CCOc1ccc(CC(=O)NNC(=S)NC)cc1Br | 28 |
| CCOC(=O)C1CCN(C(=O)COc2ccc(S(=O)(=O)NC(C)C)cc2)CC1 | -10.3 |
| COC(=O)c1ccc(NC(=O)COC(=O)C2CC(=O)N(Cc3ccccc3)C2)cc1 (stereo not drawn) | -11.7 |
| C=CCSc1nc2ccccc2[nH]1 | 25 |
| COc1ccc(OC)c(NC(=O)Cc2coc3ccc(C)cc23)c1 | -25 |
| c1csc(Cc2nc(-c3ccc(-n4cccc4)cc3)no2)c1 | 10.5 |
| Cc1nc2ccc([N+](=O)[O-])cc2[nH]1 | 7.21 |
| Cc1[nH]nc2c1C(c1cccc(OC(=O)N3CCOCC3)c1)C(C#N)=C(N)O2 (stereo not drawn) | 1.46 |
| CCN(C(=O)CSc1ccc2ccccc2c1)C1CCS(=O)(=O)C1 (stereo not drawn) | -19.5 |

| SMILES | hERG current change (%, negative = inhibition) at 10uM [%] |
| --- | --- |
| CC(=O)c1ccc(S(=O)(=O)NCc2cccnc2)cc1 | 16 |
| COCc1cc(/C=N\NC(=O)c2ccc(Cl)cc2)ccc1OC | -3.44 |
| Cc1cc(NC(=O)CCn2c(=O)sc3ccccc32)no1 | -7.55 |
| c1nc2sc3c(c2c2nnnn12)CCC3 | 7.51 |
| CC1=C(C(=O)OCC2CCCO2)C(c2coc3ccccc3c2=O)C2=C(CC(C)(C)CC2=O)N1 (stereo not drawn) | -7.17 |
| Cc1onc(-c2ccc(Cl)cc2)c1-c1ccnn1S(=O)(=O)c1ccc(Cl)cc1 | 4.81 |
| NS(=O)(=O)c1ccc(Oc2ccc(S(N)(=O)=O)cc2)cc1 | 0.75 |
| COc1ccc(N=c2sc3ccccc3n2C)cc1 | 8.47 |
| CC(N=C(NC#N)Nc1ccncc1)C(C)(C)C.O (stereo not drawn) | 16.2 |
| Cc1ccc(S(=O)(=O)N2CCN(CC(=O)Nc3ccc(N4CCOCC4)cc3)CC2)cc1C | -11.5 |
| CCn1ncc(Br)c1C(=O)Nc1ccc(Cl)cn1 | -7.49 |
| N#Cc1ccc(Oc2cc(C(F)(F)F)nc(-c3ccccn3)n2)cc1 | 5.26 |
| COc1ccccc1C1Nc2ccccc2NC2=C1C(=O)CC(C)(C)C2 (stereo not drawn) | 7.64 |
| CCC(=O)NNC(=O)CSc1nnc(-c2ccccc2)c(-c2ccccc2)n1 | 3.68 |
| CCOC(=O)C(Cc1ccc(OC)c([N+](=O)[O-])c1)NC(=O)CCC(=O)Nc1ccc(C)cc1 (stereo not drawn) | -26.2 |
| Cc1ccc(Cl)c(NC(=O)CCl)c1Cl | -13.4 |
| Cc1ccc(/C=c2/sc3nnc(-c4ccccc4Cl)n3c2=O)o1 | -32.9 |
| CN(C)S(=O)(=O)Oc1ccc(C(=O)Nc2cccc(Cl)c2)cc1 | 21.9 |
| Cc1ccc(S(=O)(=O)Cn2nnnc2C(c2ccc(F)cc2)N2CCCCC2)cc1 (stereo not drawn) | -3.43 |
| O=C(CN(CCc1ccccc1)S(=O)(=O)c1ccc(Cl)cc1)N/N=C/c1ccc2c(c1)OCO2 | -2.68 |
| COc1ccc(CSc2nc(N3CCOCC3)c3c(c2C#N)CC(C)(C)OC3)cc1 | -14.5 |
| Cc1cc(C)n(-c2nc3ccccc3c(=O)n2OCC(=O)Nc2c(C)cccc2C)n1 | 5.42 |
| N#Cc1ccc(/C=C/C(=O)O)cc1 | 23.2 |

| SMILES | hERG current change (%, negative = inhibition) at 10uM [%] |
| --- | --- |
| CC1(C)CC(NC(=S)NC2CC2)CC(C)(C)N1 | 15.4 |
| O=C(OCc1ccccn1)C1CCN(C(=O)c2ccc(Cl)cc2)CC1 | -36 |
| CCC(c1n[nH]c(=S)n1-c1ccccc1)N(C)C (stereo not drawn) | 17.6 |
| Cc1cc(Br)c(NC(=O)C(C)Sc2nnnn2C)c(Br)c1 (stereo not drawn) | 7.7 |
| O=P(O)(O)COc1ccccc1O | 8.87 |
| CC12CCC(C(=O)N3CCOCC3)([C@H](Br)C1=O)C2(C)C (stereo partly drawn) | 15.6 |
| CC(=O)Nc1ncnc2c1c(-c1ccc(Cl)cc1)nn2C(C)(C)C | 1.91 |
| COc1c2ccc(C(=O)NCCCCc3ccccc3)cc2nn1C | -6.65 |
| CNC(=O)NC(=O)COC(=O)/C=C/c1cccc(Br)c1 | 17.6 |
| CC1=CCC(C(=O)O)C(C(=O)NC2CCCCC2)C1 (stereo not drawn) | 16.7 |
| CCOc1ccccc1Oc1coc2cc(OC(=O)N(C)C)ccc2c1=O | 16.2 |
| O=C(Nc1ccc2c(c1)C(=O)N(CC1CCCO1)C2=O)c1ccc(Cl)c(Cl)c1 (stereo not drawn) | -11.6 |
| CN(Cc1cccs1)C(=O)Cn1cnc2cc([N+](=O)[O-])ccc2c1=O | 14.1 |
| O=C(Cc1cnc2ncnn2c1)N1CCc2c([nH]c3ccccc23)C1c1ccccn1 (stereo not drawn) | -30.9 |
| O=C(NCCN1CCOCC1)c1cc(Sc2cccc(Cl)c2)nc2ccccc12 | -77.2 |
| COc1cc(NC(=O)c2ccc3c(c2)OCCO3)ccc1NC(=O)c1cccs1 | -9.8 |
| Cc1cccc(C(=O)N/N=C/c2ccc[nH]2)c1 | 12.1 |
| CC(C)c1ccc(C2CC(c3ccc(Br)cc3)=NN2C(N)=S)cc1 (stereo not drawn) | 14.7 |
| O=C(Nc1ccc(NC(=O)c2ccco2)cc1)c1ccco1 | 10.6 |
| Cc1csc2nc(CNS(=O)(=O)N(C)C)cn12 | -2.66 |
| Cc1cccn2c(CN(C)CC3Cc4ccccc4O3)c(C(=O)N3CCCCC3)nc12 (stereo not drawn) | -25.5 |
